Consider 14 molecules from paper PMC12136788.

The other results are listed elsewhere or left out.

The chains are these.
T1: UNK ZnF1-6 (called full-length) (human, UniProt Q9C0B0 30-357)
T1 sequence: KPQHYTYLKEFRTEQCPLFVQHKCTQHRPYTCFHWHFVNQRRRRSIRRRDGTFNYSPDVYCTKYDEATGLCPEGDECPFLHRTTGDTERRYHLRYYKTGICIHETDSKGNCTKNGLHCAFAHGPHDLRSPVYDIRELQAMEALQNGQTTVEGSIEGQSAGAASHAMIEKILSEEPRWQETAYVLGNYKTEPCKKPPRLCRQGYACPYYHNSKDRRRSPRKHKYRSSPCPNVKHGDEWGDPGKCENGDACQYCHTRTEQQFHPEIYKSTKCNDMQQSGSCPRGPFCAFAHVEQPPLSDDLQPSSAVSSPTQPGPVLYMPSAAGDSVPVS

B1: chr4:175632990:175633131:-|3pUTR|ENSG00000150625|msi1|FALSE|unique (ssRNA)
RNA: GGGAGUUCUACAGUCCGACGAUCGUUGACACUUUUGGCUUUUAUUUCUGGUAUUAGAGUUUGUAUUUUCACAGAGUGCUUUGUAGCAGGCAUUACAAUUAAUCUGUUUUGUACAUAAAUGUGCCAACAGCUUGAUGGUGGCGUCAACAGAGGAUUGAGCAUCA
B2: chr10:5393100:5393516:-|three_prime_utr|ENSG00000178462|control|control|control (ssRNA)
RNA: GGGAGUUCUACAGUCCGACGAUCUGGGUGCAAAUGAAUGUCAAGUUAAAAUGGCAUGUUUUCUUUUCAAGCCGUUAUAUGCCUAGUGGGUAGUUCCCCUGAUGAGCAGAAAAAUGAACUCAAAUCAGGCAAGACUCUAGGUUCCAACAGAGGAUUGAGCAUCA
B3: chr7:135928980:135929074:-|3pUTR|ENSG00000105887|msi1_unk|total|mutant (ssRNA)
RNA: GGGAGUUCUACAGUCCGACGAUCUAAAAACCGAAUCACCGCCAUAAGCCUGUCCGUAUCAUAUGAAGAGAGAACAGUUAUCUCCGUACCUAUGGAUUUUCUUUAUUUGCUGUUUGAAUGGAUUGACCUUGGUUAUGUGUUGAGCAACAGAGGAUUGAGCAUCA
B4: ENSG00000197746:stop:overlap|stop_codon|ENSG00000197746|stop_codon|NA|stop_codon (ssRNA)
RNA: GGGAGUUCUACAGUCCGACGAUCACACAGAGACAGCAGCCCAGUGCAAUGCUGUCGAGCAUUGCAAACGCCAUGUGUGGAACUAGGAGGAGGAAUAUUCCAUCUUGGCAGAAACCACAGCAUUGGUUUUUUUCUACUUGUGUGCAACAGAGGAUUGAGCAUCA
B5: chr10:121967677:121967791:-|CDS|ENSG00000107672|unk|FALSE|bound_elsewhere (ssRNA)
RNA: GGGAGUUCUACAGUCCGACGAUCAAAUCCGCUAGAAGCUGAAGAACUCAUCCGUGAUGAAGAUAGUCCUGAUUUUGAAUUCAUAGUCUAUGACUCCUGGAAGAUAACAGGCAGAACAGCAGAAAACACCUUUAAUAAAACCCACAACAGAGGAUUGAGCAUCA
B6: chr9:104598459:104599413:-|CDS|ENSG00000277556|control|control|control (ssRNA)
RNA: GGGAGUUCUACAGUCCGACGAUCCUUAUAUUCAUAUUCUACAGGGUGAUGACUCCCAUGAUGAAUCCUUUAAUCUACAGUCUUAGAAACAAGGAUGUGAAGGAGGCAGUAAAACACCUACUGAGAAGAAAAAAUUUUAACAAGCAACAGAGGAUUGAGCAUCA
B7: chr16:46956602:46956663:-|3pUTR|ENSG00000069345|msi1_unk|total|mutant (ssRNA)
RNA: GGGAGUUCUACAGUCCGACGAUCGUUUGUACAAUUUGUCCUGAAGCUUUGUGUUUGGCUGCACCUGCAUAAGCUGCUACAAACCGAAUAAAGAAUUUCACCGCCUGUAUCUAUCAUUCCGAUGCAUGGAAAAAAAUGGGCUUUCAACAGAGGAUUGAGCAUCA
B8: chr12:100626600:100626701:+|3pUTR|ENSG00000139354|unk|total|mutant (ssRNA)
RNA: GGGAGUUCUACAGUCCGACGAUCAAUUUUAUCAUCAAGUAUUCCCUUAUAAAACCAAGUAACACUUCUUUAUCAGUAACUUUCCGAACUUAAAAGAAAGCAAAAAGUAAAUGGAAUUGCCGGCAAUUUAUGAAUCCCCGCCGACAACAGAGGAUUGAGCAUCA
B9: ENSG00000152377:stop:overlap|stop_codon|ENSG00000152377|stop_codon|NA|stop_codon (ssRNA)
RNA: GGGAGUUCUACAGUCCGACGAUCUGACAGAGGAUGAUGAGGAUGAGGAUGAUGACAAAGAGGAUGAGGUCGGGUACAUAUGGUAGUGCCCACAAGAAAGAGGACACAAGUUUUGCACAAAAUUGCAAGUCACUUCCUAUUCCUCAACAGAGGAUUGAGCAUCA
B10: chr4:177362735:177362840:+|3pUTR|ENSG00000109674|unk|total|mutant (ssRNA)
RNA: GGGAGUUCUACAGUCCGACGAUCAAAGUGUUUUCCGUAUGCUUUCCGUCUCUUGUAACUGGGGAGAAGCAGUGUUUUUUUUUCCGGAAAGGAUUAUGCGACACAAUAAAAUAAGAUAUUCUGUCUGCCGUGAAUACAUUUCUCCAACAGAGGAUUGAGCAUCA
B11: chr8:116854276:116854437:-|CDS|ENSG00000164754|unk|FALSE|bound_elsewhere (ssRNA)
RNA: GGGAGUUCUACAGUCCGACGAUCAGGAAGCUAAUUGUUGACAGUGUCAAAGAGUUGGAUAGCAAGACAAUUAGAGCCCAACUUAGUGAUUAUUCAGAUAUUGUUACUACUUUGGAUCUGGCACCGCCCACCAAGAAAUUGAUGCAACAGAGGAUUGAGCAUCA
B12: chr6:52500910:52501011:-|3pUTR|ENSG00000065308|msi1|FALSE|unique (ssRNA)
RNA: GGGAGUUCUACAGUCCGACGAUCUAAUAACUGCAAAUCGCAUGUUCAGCCAGCAGCCUCCUAAGCCCACCUUCCUCCCCCAUUAGAGAACACCCAUCCUAGGUGCUCUCCAGGCUGUGUCAUUGGCAGGGCUUCACAUGCAGGCAACAGAGGAUUGAGCAUCA
B13: chr21:43758806:43758907:+|3pUTR|ENSG00000160209|msi1|total|mutant (ssRNA)
RNA: GGGAGUUCUACAGUCCGACGAUCACUUUCUUAAUCCAGUUUUUCAAACUUCUCCCUGCCGACCGUAAGGAUGAAUUCCACAACCGGAUCCUUUUUAAAAUCGAUUUUAAAUUGUUGCCCCGUCCUGCCAAGGUUAUUAUGUGCCAACAGAGGAUUGAGCAUCA
B14: chr1:54043363:54043464:-|CDS|ENSG00000116209|msi1|FALSE|unique (ssRNA)
RNA: GGGAGUUCUACAGUCCGACGAUCCGCACAGAGCUUCAUAACCUCUUCAUGGACUUUUUAUCUUCAAGCCGAUGACGGAAAAAUAGUUAUAUUCCAGGUGACAACUGAGCUUCAUGGAUUCAUCUAAAUACUAACAACAGUAAACAACAGAGGAUUGAGCAUCA

This experiment concerns the target T1, UNK ZnF1-6 (called full-length). Put plainly: nsRBNS (natural sequence RNA bind-n-seq); RBNS binding buffer (assumed for nsRBNS): 25 mM Tris pH 7.5, 150 mM KCl, 3 mM MgCl2, 0.01% Triton X-100, 500 ug/ml BSA, 20 U/ml SUPERase-In, 4 C; UNK is unkempt and MSI1 is Musashi-1; names of the RNAs are library labels; protein concentration not given here; high values mean tight binding.
For B1, the binding signal came to 0.926 enrichment R.

Consider B2, for which the binding signal amounted to 0.406 enrichment R.

Take B3: the binding signal was 0.247 enrichment R.

In the case of B4, the binding signal turned out to be 0.944 enrichment R.

Take B5: the binding signal came to 0.695 enrichment R.

Molecule B6 gave a binding signal of 0.402 enrichment R.

In turn, B7 showed a binding signal of 0.246 enrichment R.

With B8, the binding signal stood at 0.652 enrichment R.

Molecule B9 displayed a binding signal of 0.673 enrichment R.

In turn, B10 registered a binding signal of 0.427 enrichment R.

Regarding B11, the binding signal is 0.624 enrichment R.

B12 returned a binding signal of 0.849 enrichment R.

B13: the binding signal was 0.447 enrichment R.

Turning to B14, the binding signal was determined as 0.525 enrichment R.
